According to patent publication US5493007A, “Platelet aggregation inhibitors having high specificity for GPIIBIIIA” (Genentech, Inc., priority 1994, dated 1996):
pIC50: −log10 of the molar value. For at least one compound, name, drawing or mass did not settle the structure. Where a SMILES comes first, the peptide text is derived from it. Bridges are numbered along the chain shown (N, C = ends). [ ]: non-standard residue; d: D form. Pen = CC(C)(S)[C@H](N)C(=O)O

Experiments:
GP IIb IIIa [1] = molecular target: T1, GP IIb IIIa (Homo sapiens, UniProt P05106+P08514); assay: Fibrinogen-GP IIb IIIa Receptor ELISA Binding Assay; design: from tissue; host or cells: outdated human platelets; settings: purified human platelet GP IIb IIIa, fibrinogen-coated plates; read-out: ELISA IC50 Fibrinogen GPIIb IIIa
Procedure: The method used is essentially that described in Nachman and Leung (J. Clin. Invest., 69:263-269 [1982]). The GP IIb IIIa is essentially purified as described in Fitzgerald et al., (Anal. Biochem. 151:169-177 [1985]).
Outdated human platelets are washed 3 times with 10 mM tris-HCl, 150 mM NaCl (TBS), 1 mM EDTA, pH 7.5, and centrifuged at 2000×g to pellet cells. Cells are lysed in 5 pellet volumes of TBS, 1% Triton X-100, 1 mM Ca2 Cl2, and followed by centrifugation at 30,000×g. The supernatant fraction is collected and the supernatant is loaded onto a concanavalin-A column, previously equilibrated in TBS, 1 mM Ca2 Cl2, 0.1% Triton, 0.05% NaN3 and eluted with 0.2M α-methylmannoside. Fractions are pooled and loaded onto a heparin-agarose column. The flowthrough is collected and concentration on an Amicon YM 30 filter to a volume of approximately 5-10 mi. The concentrate is then applied to an S-300 column (500 ml) and 6 ml fractions are collected. The GP IIb IlIa containing fractions are collected, pooled, and stored at -80° C.
The purification of fibrinogen is conducted essentially as described by Lipinska et al., (J. Lab. Clin. Med. 507, [1974]). Briefly, a 0.3% w/v solution of human fibrinogen (Kabi #5302) is dissolved in 150 mM NaCl. Saturated (NH4)2 SO4 is added dropwise with stirring to the fibrinogen solution to obtain about 16% saturation. The precipitate is spun down in appropriate size bottles at 2000×g. The supernatant is decanted and the precipitate resuspended in 150 mM NaCl (approximately 50% of the original volume). NH4 SO4 is again added dropwise to obtain 16% saturation. The suspension is spun down and the precipitate is resuspended in Tris-saline in a minimal volume (approximately 5% of the original volume). Any remaining insoluble material is spun down at 2000 rpm in a Sorval type centrifuge and the fibrinogen supernatant is decanted and dialyzed overnight at 4° C. against Tris-saline. Characterization of the fibrinogen is by the Bradford protein assay, SDS-PAGE, and/or Western blotting using well known standard procedures.
Briefly, 96 well plates are coated (Type Nunc 1 Maxisorp™) with 10 μg/ml purified fibrinogen (100 μl/well), and allowed to stand overnight at 4° C. The plates are washed three times with PBS Tween (0.137M NaCl, 0.003M KCl, 0.008M Na2 HPO4, 0.001M KH2 PO4, pH 7.4 at room temperature, 0.05% Tween-20) and blocked for 1 to 2 hours at room temperature with 200 μl/well TNCNT (which is 0.5% BSA, 20mM Tris, pH 7.5 at room temperature, 120 mM NaCl, 0.2% NAN3, 2mM CaCl2, 0.05% Tween 20, 0.5% BSA [Calbiochem RIA grade or better]) on a plate shaker. The plates are again washed three times with PBS/Tween and then 50 μl of sample in TNCNT is added. The mixture is incubated for 15 minutes at room temperature on a plate shaker. The stock solution of purified GP IIb IIIa receptor from human platelets, (0.4-1.0 mg/ml GP IIb IIIa in 0.1% Triton X-100, 1 mM CaCl2, 20 mM Tris, 150 mM NaCl, 0.05% NaN3 in 0.3M N-acetyl glucosamine pH 7.5, stored at -70° C.), is reconstituted to about 40 μg/ml in TNCNT. Fifty μl of this diluted GP IIb IIIa is then added to each well and incubated on a plate shaker at room temperature. After one hour, the plates are washed four times with PBS/Tween and 100 μl of a polyclonal or monoclonal antibody specific for GP IIIa such as AP3 (1 μg/ml) (See e.g. Newman et al., Blood, 65:227-232 [1985]) in ELISA buffer (PBS, 0.5% BSA, 0.05% Tween 20, 0.01% Thimerasol) is added. After a one hour incubation at room temperature on a plate shaker, the samples are washed 4 times with PBS/Tween. One hundred μl of GAM-HRP (horse radish peroxidase conjugate of goat anti-mouse IgG [Pel-Freeze Cat. 715305-1] dissolved in ELISA buffer) previously diluted to 1:10,000 is then added and the samples are incubated 1 hour at room temperature on a plate shaker. […]

GP IIb IIIa [2] = molecular target: T1, GP IIb IIIa; assay: GP IIb IIIa -von Willebrand factor (vWF) ELISA Assay; assay type: binding; design: GP IIb IIIa, prepared by the method of Fitzgerald et al; from tissue; settings: GP IIb IIIa-coated plates, read-out: ELISA IC50 GPIIb IIIa vWF
Procedure: Microtiter plates are coated with 1.0 μg/ml GP IIb IIIa, prepared by the method of Fitzgerald et al., (Anal. Biochem. 151:169-177 [1985]) and allowed to incubate overnight in coat buffer. The plates are then washed three times in wash buffer (0.05% Tween 20 in PBS) and 150 μl of assay buffer is added and allowed to incubate for 1-2 hours at room temperature on plate shaker. The plates are washed three times and 50 μl of 2x inhibitor in assay buffer (Assay buffer: 0.5% BSA/50 mM Tris, 100 mM NaCl, 1.0 mM CaCl2, 1.0mM MgCl2, 1.0 mM MnCl2; coat buffer is the same but without BSA) is added. Fifty μl of 4.0 μg/ml vWF (prepared as described by Ledford et al., Thrombosis and Haemostasis, 64(4): 569-575 [1990]) in assay buffer is then added and allowed to incubate for one hour at room temperature on plate-shaker. The plates are washed three times and the antibody mixture is added (1:5000 of mouse anti-vWF and 1:5000 of rabbit-anti-mouse-Fc-HRP, both commercially available) in assay buffer and incubated for 1 hour at room temperature on plate-shaker. Plates are again washed three times and 100 μl of substrate solution (10 mg OPD, 6.5 μl H2 O2, 15 ml phosphate citrate buffer) is added and incubated at room temperature. The color change of OPD/H2 O2 reagent is read at 492 nm with a 405 nm reference wavelength on the filter photometer.

T1 sequence (P08514 32-887 limits assumed): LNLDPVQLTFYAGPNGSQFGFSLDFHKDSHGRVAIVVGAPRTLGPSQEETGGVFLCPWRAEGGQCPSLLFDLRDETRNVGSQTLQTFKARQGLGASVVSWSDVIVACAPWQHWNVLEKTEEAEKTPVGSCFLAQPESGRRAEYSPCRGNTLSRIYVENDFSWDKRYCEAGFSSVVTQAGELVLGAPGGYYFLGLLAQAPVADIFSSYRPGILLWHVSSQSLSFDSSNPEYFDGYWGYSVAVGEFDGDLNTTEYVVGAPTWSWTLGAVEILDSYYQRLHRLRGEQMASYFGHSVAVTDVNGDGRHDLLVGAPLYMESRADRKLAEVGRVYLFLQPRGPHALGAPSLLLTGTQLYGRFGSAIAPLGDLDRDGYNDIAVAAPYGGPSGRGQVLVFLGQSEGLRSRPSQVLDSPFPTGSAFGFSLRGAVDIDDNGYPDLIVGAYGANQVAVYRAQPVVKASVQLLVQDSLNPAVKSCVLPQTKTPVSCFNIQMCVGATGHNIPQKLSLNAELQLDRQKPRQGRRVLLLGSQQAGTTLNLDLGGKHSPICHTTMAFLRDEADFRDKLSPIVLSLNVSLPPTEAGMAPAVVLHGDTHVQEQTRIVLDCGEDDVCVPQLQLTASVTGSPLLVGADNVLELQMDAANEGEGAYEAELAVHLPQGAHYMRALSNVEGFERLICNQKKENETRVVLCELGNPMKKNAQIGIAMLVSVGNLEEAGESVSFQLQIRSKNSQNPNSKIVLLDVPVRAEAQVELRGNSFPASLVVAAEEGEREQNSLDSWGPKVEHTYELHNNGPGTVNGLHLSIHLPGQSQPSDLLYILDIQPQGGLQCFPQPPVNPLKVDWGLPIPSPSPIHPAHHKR
T1 sequence (P08514 891-1039 partner limits assumed): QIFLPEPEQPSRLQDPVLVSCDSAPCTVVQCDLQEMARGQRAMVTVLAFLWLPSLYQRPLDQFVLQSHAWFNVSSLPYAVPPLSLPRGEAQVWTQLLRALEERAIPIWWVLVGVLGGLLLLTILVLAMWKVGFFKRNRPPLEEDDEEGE
T1 sequence (P05106 27-788): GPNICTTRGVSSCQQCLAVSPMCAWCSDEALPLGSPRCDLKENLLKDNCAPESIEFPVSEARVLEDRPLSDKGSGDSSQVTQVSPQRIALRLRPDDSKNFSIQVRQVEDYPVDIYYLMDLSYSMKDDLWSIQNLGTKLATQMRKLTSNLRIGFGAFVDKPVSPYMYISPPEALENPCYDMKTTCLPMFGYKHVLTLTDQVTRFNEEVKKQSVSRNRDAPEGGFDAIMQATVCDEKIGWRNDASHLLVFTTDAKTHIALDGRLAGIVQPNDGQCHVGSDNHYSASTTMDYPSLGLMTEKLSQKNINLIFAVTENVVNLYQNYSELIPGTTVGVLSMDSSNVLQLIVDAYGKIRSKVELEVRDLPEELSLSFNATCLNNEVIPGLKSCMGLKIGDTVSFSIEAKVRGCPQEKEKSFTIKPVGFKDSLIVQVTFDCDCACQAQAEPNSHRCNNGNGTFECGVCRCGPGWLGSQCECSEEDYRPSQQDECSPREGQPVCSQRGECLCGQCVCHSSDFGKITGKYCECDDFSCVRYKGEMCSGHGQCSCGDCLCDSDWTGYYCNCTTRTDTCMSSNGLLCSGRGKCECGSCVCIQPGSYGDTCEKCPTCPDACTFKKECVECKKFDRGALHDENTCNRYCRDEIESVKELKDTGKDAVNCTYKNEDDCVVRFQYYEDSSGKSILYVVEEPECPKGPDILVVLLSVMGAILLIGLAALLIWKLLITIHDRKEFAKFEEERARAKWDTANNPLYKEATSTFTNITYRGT

Row | SMILES | pIC50 (GP IIb IIIa [1]) | pIC50 (GP IIb IIIa [2])
1 | N=C(N)NCCC[C@@H]1NC(=O)[C@@H](Cc2ccc(O)c(Br)c2)NC(=O)C[S+]([O-])C[C@@H](C(=O)N[C@H](CCCCN)C(N)=O)NC(=O)[C@H](CC(=O)O)NC(=O)CNC1=O (single isomer, unassigned) [7/37, cyclo-S-acetyl-dTyr--Arg--Gly--Asp--Cys--dLys--NH2] | 8.20 | 8.74
2 | N=C(N)NCCC[C@H](NC(=O)[C@@H]1C[S+]([O-])CC(=O)N[C@H](Cc2ccc(O)cc2)C(=O)N[C@@H](CCCNC(=N)N)C(=O)NCC(=O)N[C@@H](CC(=O)O)C(=O)N1)C(N)=O (single isomer, unassigned) [7/32] | 7.26 | 7.23
3 | N=C(N)NCCC[C@@H]1NC(=O)[C@@H](Cc2ccc(O)c(Br)c2)NC(=O)C[S+]([O-])C[C@@H](C(=O)N[C@H](CCCCN)C(N)=O)NC(=O)[C@H](CC(=O)O)NC(=O)CNC1=O (single isomer, unassigned) [7/38, cyclo-S-acetyl-dTyr--Arg--Gly--Asp--Cys--dLys--NH2] | 7.16 | 7.33
4 | N=C(N)NCCC[C@@H]1NC(=O)[C@@H](Cc2ccc(O)cc2)NC(=O)[C@H](CCCNC(=N)N)SC[C@@H](C(=O)O)NC(=O)[C@H](CC(=O)O)NC(=O)CNC1=O [9/8, cyclo-S-2-L-(5-guanidinovaleryl)-dTyr--Arg--Gly--Asp--Cys--OH] | 8.08 | 8.61
5 | N=C(N)NCCC[C@@H]1NC(=O)[C@@H](Cc2ccc(O)cc2)NC(=O)C[S+]([O-])C[C@@H](C(=O)N[C@H](CCCNC(=N)N)C(N)=O)NC(=O)[C@H](CC(=O)O)NC(=O)CNC1=O (single isomer, unassigned) [7/33, cyclo-S-acetyl-dTyr--Arg--Gly--Asp--Cys--dArg--NH] | 8.17 | 9.00
6 | N=C(N)NCCC[C@@H]1NC(=O)[C@@H](Cc2ccc(O)cc2)NC(=O)C[S+]([O-])C[C@@H](C(=O)N[C@@H](CCCN)C(N)=O)NC(=O)[C@H](CC(=O)O)NC(=O)CNC1=O (single isomer, unassigned) [7/39, cyclo-S-acetyl-dTyr-Arg--Gly--Asp--Cys--Orn--NH2] | 8.28 | 
7 | N=C(N)NCCC[C@@H]1NC(=O)[C@@H](Cc2ccc(O)c(Br)c2)NC(=O)C[S+]([O-])C[C@@H](C(=O)N[C@@H](CCCCN)C(N)=O)NC(=O)[C@H](CC(=O)O)NC(=O)CNC1=O (single isomer, unassigned) [7/35, cyclo-S-acetyl-dTyr--Arg--Gly--Asp--Cys--Lys--NH2] | 7.78 | 8.21
8 | N=C(N)NCCC[C@@H]1NC(=O)[C@@H](Cc2ccc(O)cc2)NC(=O)C[S+]([O-])C[C@@H](C(=O)N[C@H](CCCNC(=N)N)C(N)=O)NC(=O)[C@H](CC(=O)O)NC(=O)CNC1=O (single isomer, unassigned) [7/34] | 7.32 | 7.47
9 | N=C(N)NCCC[C@@H]1NC(=O)[C@@H](Cc2ccc(O)c(Br)c2)NC(=O)C[S+]([O-])C[C@@H](C(=O)N[C@@H](CCCCN)C(N)=O)NC(=O)[C@H](CC(=O)O)NC(=O)CNC1=O (single isomer, unassigned) [7/36] | 6.97 | 7.34
10 | CC1(C)SCC(=O)N[C@H](Cc2ccc(O)cc2)C(=O)N[C@@H](CCCCN)C(=O)NCC(=O)N[C@@H](CC(=O)O)C(=O)N[C@@H]1C(=O)O [7/47] ({CH2CO}-[dY]KGD[Pen]-OH; thioether N-5) | 8.38 | 
11 | N=C(N)NCCC[C@H](NC(=O)[C@@H]1C[S+]([O-])CC(=O)N[C@H](Cc2ccc(O)cc2)C(=O)N[C@@H](CCCNC(=N)N)C(=O)NCC(=O)N[C@@H](CC(=O)O)C(=O)N1)C(N)=O (single isomer, unassigned) [7/31, cyclo-S-acetyl-dTyr--Arg--Gly--Asp--Cys--Arg--NH2] | 8.02 | 8.69
12 | N=C(N)NCCC[C@@H]1NC(=O)[C@@H](Cc2ccc(O)cc2)NC(=O)[C@@H](CCCNC(=N)N)SC[C@@H](C(=O)O)NC(=O)[C@H](CC(=O)O)NC(=O)CNC1=O [9/9, cyclo-S-2-D-(5-guanidinovaleryl)-dTyr--Arg--Gly--Asp--Cys--OH] | 7.30 | 7.86
